Laboratory results taken from patent US20220073643A1 (NANJING GENSCRIPT BIOTECH, published 2022).
Residue numbers refer to the chain shown, from its start. One block for each binder: values may come before it.

Target: T1, human Claudin18.2 (human)
T1 construct: also called CLDN18.2
Assay: FACS, Claudin18.2-HEK293 cells
Method: The binding of chimeric antibodies to Claudin18.2 expressed on HEK293 cells was determine by FACS analysis. Briefly, HEK293 cells expressing human Claudin18.2 as prepared in the foregoing Example were harvested and incubated with anti-Claudin18.2 mAbs at 4° C. for 40 min, followed by fluorophore (iFluor 647)-labeled goat […] IgG (H+L) secondary antibodies at 4° C. for 0.5 hour. The samples were then analyzed by flow cytometry.
After initial screening of cell binding with transfected supernatants, the binding pattern of chimeric and up to 3 humanized antibodies on Claudin18.2 expressed on HEK293 cells were plotted with antibody in 3× serial dilutions, starting concentration of 45 μg/ml, following the protocol described in Example 3.

EC50: 0.249 µg/mL
Span: 15400
B1: humanized 237D2A4-VH1.5 + VL1 (antibody, human IgG1, kappa)
heavy: QVQLQESGPGLVKPSETLSLTCTVSGFSLTSYGVSWVRQPPGKGLEWLGVIWGDGSTNYHSTLISRLTISKDTSKNQFSLKLSSVTAADTAVYYCAKAGRGNALDYWGQGTLVTVSS[human IgG1 constant region not printed]
light: DIVMTQSPDSLAVSLGERATINCKSSQSLLNSGNQKNYLTWYQQKPGQPPKLLIYWASTRESGVPDRFSGSGSGTDFTLTISSLQAEDVAVYYCQNDYSFPLTFGGGTKLEIKRTVAAPSVFIFPPSDEQLKSGTASVVCLLNNFYPREAKVQWKVDNALQSGNSQESVTEQDSKDSTYSLSSTLTLSKADYEKHKVYACEVTHQGLSSPVTKSFNRGEC
notes: humanized, human IgG1/kappa constant regions

EC50: 0.218 µg/mL
Span: 15500
B2: humanized 237D2A4-VH1.5 + VL1.1 (antibody, human IgG1, kappa)
heavy: B1 heavy
light: B1 light with I21M, N22S
notes: as for B1
